This is one part of the list.
B1: chr5:148442723:148442824:+|3pUTR|ENSG00000145868|unk|FALSE|unique (ssRNA)
RNA: GGGAGUUCUACAGUCCGACGAUCUUAUGAGCUUAAAAAAAAGUGAGUUUGAGAGGGAAAUGGAAAAGUUUCCAGAGUAUUUCUAGUAAUUUAUUUCCACAUUGAAUUGUGUAUAUGCUUUAUCUUGAAUAUAAAAUAAAAGUUCAACAGAGGAUUGAGCAUCA
B2: chr14:94062441:94062542:-|CDS|ENSG00000089737|msi1|total|mutant (ssRNA)
RNA: GGGAGUUCUACAGUCCGACGAUCCCUCCAAGUAACACCGAAGCACCACCUGGAGAGACCAGAACUGAGGCCGGAGCUGAGACCCGAUCACCAGGCAAGGCUGAAGCUGAGUCUGAUGCAUUGCCUGACGAUACUGUAAUUGAGCAACAGAGGAUUGAGCAUCA
B3: chr12:130875966:130876013:+|3pUTR|ENSG00000132341|msi1_unk|total|mutant (ssRNA)
RNA: GGGAGUUCUACAGUCCGACGAUCGAUGAGGAUGAUGACCUGUGAGAAUGAAGCUGGAGCCCAGCGUCAGAAGUCCCGUUUUACCGGCAGCUGUCCUGUGAUGUCAGCGGUGCAGCGUGUGUGCCACCUCAUUAUUAUCCCGCUCAACAGAGGAUUGAGCAUCA
B4: chr2:42328916:42329027:+|CDS|ENSG00000143924|unk|FALSE|unique (ssRNA)
RNA: GGGAGUUCUACAGUCCGACGAUCAGAAGGAUCUGAUGGGACAGAUAUCAAUGCACUGGUGCGAUCCCACAAUAGAAAGGUGAUAGCUGUUGCCGAUGACUUUUGUAAAGUCCAUCUGUUUCAGUAUCCCUGCUCCAAAGCAAACAACAGAGGAUUGAGCAUCA
B5: chr2:218454035:218454136:-|3pUTR|ENSG00000135913|msi1|FALSE|unique (ssRNA)
RNA: GGGAGUUCUACAGUCCGACGAUCGAGAUUUCUUCACACAGUAUGUUCAUCAUAUAUCAUCAUCAUUAUUAUGGUGGUAAAGAUAGAAUCUUUUUUCUUUUUUGUCAUUCUGCCAUGGAGCAGCAUUACCCUAAUGGAUUGCAACAACAGAGGAUUGAGCAUCA
B6: chr5:150401636:150402250:-|three_prime_utr|ENSG00000019582|control|control|control (ssRNA)
RNA: GGGAGUUCUACAGUCCGACGAUCCUGCUGCCCAAUCUCCAUCUGUCAACAGGGGCGUGAGGUCCCAGGAAGUGGCCAAAAGCUAGACAGAUCCCCGUUCCUGACAUCACAGCAGCCUCCAACACAAGGCUCCAAGACCUAGGCCAACAGAGGAUUGAGCAUCA
B7: chr1:109062613:109062715:-|3pUTR|ENSG00000197780|unk|FALSE|unique (ssRNA)
RNA: GGGAGUUCUACAGUCCGACGAUCAGUUCUGAAUACACAGGUUUUGUGUGUAUUUACUCUAUGUAUUAAAUUAUUAUUGCCCUUAGUUUAAAGUAAGGAUUACAAUUGGAUUUAAGUAGAUCACUGAAUGUUAUUGUUUAUGAACAACAGAGGAUUGAGCAUCA
B8: chr3:127036428:127036535:+|3pUTR|ENSG00000114554|msi1|total|mutant (ssRNA)
RNA: GGGAGUUCUACAGUCCGACGAUCGCGUGUGGCUGGGGCGUGGCCACCACAGAGCACAUGGCUGUGUCCCGGCGCAAGCACUUCCGCAGUAUCUGUUUACAUGCGCAAGGAUCAAGCCGACUACCUGUGCUGUCUACUGGGACACAACAGAGGAUUGAGCAUCA
B9: ENSG00000107863:be:win_4401|CDS|ENSG00000107863|bound_else_gene|NA|bound_elsewhere_windowed (ssRNA)
RNA: GGGAGUUCUACAGUCCGACGAUCAAAACAGAAGAUCAUCAUUGCCAAAGAAAACAGCACUAGGAAAGACCCCAGCACGACAAAAGAUGAAAAGAUAUCACUAGGAAAAGAGAGCACGCCUUCUGAAGAACCCUCACCACCACACAACAGAGGAUUGAGCAUCA
B10: chr2:120221238:120221343:-|3pUTR|ENSG00000226479|unk|FALSE|bound_elsewhere (ssRNA)
RNA: GGGAGUUCUACAGUCCGACGAUCAUAUGUUGAAUUCUAGUUCUCUGCAUUACCAUUAUUACGUUAAAGUAUUUUUUAAAGCUUAGGUGUGAAGAUAUGUGUCUAUUGCAGAUGUCCUUGAAAACUGCAUAAAACAGUAUGUGCCAACAGAGGAUUGAGCAUCA
B11: chr18:46811193:46811294:-|3pUTR|ENSG00000078043|unk|total|mutant (ssRNA)
RNA: GGGAGUUCUACAGUCCGACGAUCUUUUUUUUCAUUUUUUUAAAAUGAUAUCUUACCUGAAACUACAAACGACAAAAGAGAAUCCGAAAUGUUUGAAUUAAAGUGAAGAAGGGUUGGGGGAGAUGGGCCUGAACCCACUUCCUGCAACAGAGGAUUGAGCAUCA
B12: ENSG00000087470:stop:overlap|stop_codon|ENSG00000087470|stop_codon|NA|stop_codon (ssRNA)
RNA: GGGAGUUCUACAGUCCGACGAUCAUAUGGCAACAUCAGAGGCACUUAAAAUUUCAAGAGAGGUAGAUCCAGAUGGAGCCAGCUAGAUAUUAACAACAAGAAGAGUGUAACUGAUUCAAUCCGUGAUGAGUAUGCUUUUCUUCACAACAGAGGAUUGAGCAUCA
B13: ENSG00000198589:be:win_7601|CDS|ENSG00000198589|bound_else_gene|NA|bound_elsewhere_windowed (ssRNA)
RNA: GGGAGUUCUACAGUCCGACGAUCUUGCGGUGAACAAAUGGCACAACCUUCCUGCUCAUCAAGGUGCUGUACAAGACCAGCCAUACCAGCUGCCAGUGGAAAUCGAUCCUCUCAUAGCCAGCAAUACAGGAAUGCACAGGAGGCCAACAGAGGAUUGAGCAUCA
B14: chr10:117284474:117284575:-|CDS|ENSG00000165650|msi1|FALSE|bound_elsewhere (ssRNA)
RNA: GGGAGUUCUACAGUCCGACGAUCAUUGCAUUGUGGUGCAGGGAUCCUUUCAAGUUGGGAGGUCUCAUCUGUUUGGGGCAUGUUAGUUUAAAACUUGAAGAUGUGGCUUUAGGAUGCCUAGCUACAUCAAACACGGAAUACCUUCAACAGAGGAUUGAGCAUCA
B15: chr5:38481646:38481747:-|CDS|ENSG00000113594|unk|total|mutant (ssRNA)
RNA: GGGAGUUCUACAGUCCGACGAUCCAGACCUCAGGCCAAUGUAAAUACAUGGAAUUCCGUGUCUCCAGACUCUCCCCGAUCCACCGACAGCAACAGUGAGAUUGUCUCAUUUGGAAGUCCAUGCUCCAUUAAUUCCCGACAAUUCAACAGAGGAUUGAGCAUCA
B16: chr17:35273046:35273147:+|3pUTR|ENSG00000166750|unk|total|mutant (ssRNA)
RNA: GGGAGUUCUACAGUCCGACGAUCAUUCCUAAGAGCAGAAGACUGCAAAACCGUAAAUAUAUACCCAAAAGGGUCUAAUGGAUCCGUUUUUGGCAUAUCAGCACAUGAUAAUACUAUGAAGCCAUAAAAAAGAGAGAUCUCUAUCAACAGAGGAUUGAGCAUCA
B17: chr11:123627604:123627705:+|3pUTR|ENSG00000023171|unk|FALSE|unique (ssRNA)
RNA: GGGAGUUCUACAGUCCGACGAUCAUUUGGAUCUAUAACUGUACUUUGCCUGGCGCUGUGCGCAAGGUCAGAAAACUUACUGCUAGUACCUAGAAACACACAAGGCUGCCCAGCCAAAUCUUAAUGUAAAGUAGCUAGAGCCAUCAACAGAGGAUUGAGCAUCA
B18: chr13:99866285:99866388:+|CDS|ENSG00000125246|unk|FALSE|unique (ssRNA)
RNA: GGGAGUUCUACAGUCCGACGAUCUAUUCUCUACGCCCGGCAAAAGAUUGUUGUCAUAGCGAAAGCCUUUGGUCUCCAAGCCAUAGAUCUGGUGUACAUUGACUUUCGAGAUGGAGCUGGGCUGCUUAGACAGUCACGAGAAGGCAACAGAGGAUUGAGCAUCA
B19: chr7:132784869:132785660:-|three_prime_utr|ENSG00000106554|control|control|control (ssRNA)
RNA: GGGAGUUCUACAGUCCGACGAUCCUUUCAGAAUGAGCAAAACACCAUCAACGUUAAUUCCAGAGAUGGAACAUUUUUUUUCCUAGUGAGAAAACAACCCAUUUGAAGAGAAGACCACUAAUGAGAAGACCACUAAAGAGAGACCAACAGAGGAUUGAGCAUCA
B20: ENSG00000198589:be:win_6401|CDS|ENSG00000198589|bound_else_gene|NA|bound_elsewhere_windowed (ssRNA)
RNA: GGGAGUUCUACAGUCCGACGAUCGUUAUCUUUUGCAAAAUACAGCCCUGGAGAUCUUUAUGGCAAACAGAGUUGCUGUGAUGUUCAACUUCCCAGACCCUGCAACAGUAAAGAAAGUGGUUAACUAUCUACCUCGUGUUGGCGCAACAGAGGAUUGAGCAUCA
B21: chr17:15571490:15574098:-|three_prime_utr|ENSG00000251537|control|control|control (ssRNA)
RNA: GGGAGUUCUACAGUCCGACGAUCGGAAAAUGAAACAAAUGACAAUGUCAUUGCAUUGAUUUUGUUCUCAUUAAAUGGUAUUUUAGCUAUAAACAUUUUCCCCUUUGAUUUGCAAAAAAAAAUUAUAGAAAAUGUCUAUGUUGCCAACAGAGGAUUGAGCAUCA
B22: chr10:32033860:32033975:-|CDS|ENSG00000170759|unk|total|mutant (ssRNA)
RNA: GGGAGUUCUACAGUCCGACGAUCCACAGUGGAUAAAGAUAUUACUCUUACCAAUGAUAAACCAGCAACCGCAAUUGGAGUUACCGGAAAUUUUACUGAUGCUGAAAGAAGAAAGUGUGAAGAAGAAAUUGCUAAAUUAUACAACAACAGAGGAUUGAGCAUCA

Target: T1, UNK ZnF1-6 (called full-length) (human, UniProt Q9C0B0 30-357)
T1 sequence: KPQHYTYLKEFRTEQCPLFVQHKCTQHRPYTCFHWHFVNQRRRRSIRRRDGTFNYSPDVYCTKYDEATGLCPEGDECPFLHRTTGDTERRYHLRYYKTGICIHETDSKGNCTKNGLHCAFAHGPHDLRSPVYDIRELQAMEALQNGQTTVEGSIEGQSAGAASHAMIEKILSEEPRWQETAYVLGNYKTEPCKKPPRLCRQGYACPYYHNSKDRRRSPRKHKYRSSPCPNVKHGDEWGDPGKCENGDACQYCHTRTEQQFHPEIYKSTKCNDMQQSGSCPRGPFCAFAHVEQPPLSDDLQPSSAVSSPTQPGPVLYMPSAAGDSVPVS
Assay: nsRBNS (natural sequence RNA bind-n-seq); RBNS binding buffer (assumed for nsRBNS): 25 mM Tris pH 7.5, 150 mM KCl, 3 mM MgCl2, 0.01% Triton X-100, 500 ug/ml BSA, 20 U/ml SUPERase-In, 4 C; UNK is unkempt and MSI1 is Musashi-1; names of the RNAs are library labels; protein concentration not given here; high values mean tight binding

| Binder | binding signal [enrichment R] |
| --- | --- |
| B1 | 1.07 |
| B2 | 0.618 |
| B3 | 0.733 |
| B4 | 0.424 |
| B5 | 0.64 |
| B6 | 0.69 |
| B7 | 1.13 |
| B8 | 0.644 |
| B9 | 0.791 |
| B10 | 0.561 |
| B11 | 0.469 |
| B12 | 0.746 |
| B13 | 0.667 |
| B14 | 0.633 |
| B15 | 0.582 |
| B16 | 0.31 |
| B17 | 1.72 |
| B18 | 0.488 |
| B19 | 0.381 |
| B20 | 0.572 |
| B21 | 0.581 |
| B22 | 0.53 |

Reference: paper PMC12136788
